The target of this assay is T1, CD3εδ complex protein (human; alpaca, UniProt P07766 23-126; P04234 22-105).
T1 construct: they are not part of the secreted protein; also called human CD3; CD386 complex protein
The assay is described as follows: ELISA, CD3 complex immobilized. The procedure:
Binding activities of the anti-TSPAN8/anti-CD3 bispecific antibodies BTE-0001 to BTE-0067 to CD3 were evaluated by the ELISA. ELISA was performed according to a conventional method. The […] complex protein obtained in Example 1-3 was immobilized on a plate. BTE-0001 to BTE-0067 were used as the test antibodies. As a secondary antibody, Goat anti-Human IgG Fc, Multi-Species SP ads-HRP (2014-05, available from SouthernBiotech) was used. TMB+Substrate-Chromogen (S1599, available from Dako) was used as the detection reagent. Infinite M200pro (available from Tecan) was used to measure the absorbance. The EC50 values were calculated using variable slope model (four parameters) in GraphPad Prism with the maximum value in the same plate fixed at the top and the minimum value in the blank in the same plate fixed at the bottom. Since BTE-0001 was always measured in each plate as a control, only the EC50 value of BTE-0001 was expressed as the average value of a plurality of plates.
Binding activities of the 66 anti-TSPAN8/anti-CD3 bispecific antibodies to CD3 were evaluated by the ELISA described in Example 1-4.

Changes are numbered by the printed parent chain.

UniProt P07766, sequence (P07766 23-126 limits assumed, stated change not applied, form in doubt, chain 1 of 2): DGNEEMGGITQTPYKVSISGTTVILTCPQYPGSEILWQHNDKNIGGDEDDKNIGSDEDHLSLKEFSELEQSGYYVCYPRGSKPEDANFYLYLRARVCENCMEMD
UniProt P07766, sequence (P04234 22-105 limits assumed, stated change not applied, form in doubt, chain 2 of 2, further chain): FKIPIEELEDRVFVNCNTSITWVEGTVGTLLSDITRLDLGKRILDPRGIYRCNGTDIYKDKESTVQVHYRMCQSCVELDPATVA

B1: BTE-0094 (bispecific antibody)
heavy: QVQLVESGGGVVQPGGSLRLSCAASGFTFSSYGMHWVRQAPGKGLEWVAVIWYDGRNKYYADSVKGRFTISRDNSKNTLYLQMNSLRAEDTAVYYCTRDHSGSGSYYIDYWGQGTLVTVSSASTKGPSVFPLAPSSKSTSGGTAALGCLVKDYFPEPVTVSWNSGALTSGVHTFPAVLQSSGLYSLSSVVTVPSSSLGTQTYICNVNHKPSNTKVDKKVEPKSCDKTHTCPPCPAPEAAGGPSVFLFPPKPKDTLMISRTPEVTCVVVDVSHEDPEVKFNWYVDGVEVHNAKTKPREEQYNSTYRVVSVLTVLHQDWLNGKEYKCKVSNKALAAPIEKTISKAKGQPREPQVYTLPPSRDELTKNQVSLSCAVKGFYPSDIAVEWESNGQPENNYKTTPPVLDSDGSFFLVSKLTVDKSRWQQGNVFSCSVMHEALHNHYTQKSLSLSPGK
light: EIAMTQSPATLSVSPGERATLSCRASQSVSSNLAWYQQKPGQAPRLLIYGASTRATGLPARFSGSGSGTEFTLTISSLQSEDFAVYYCQQYNNFWTFGQGTKVEIKRTVAAPSVFIFPPSDEQLKSGTASVVCLLNNFYPREAKVQWKVDNALQSGNSQESVTEQDSKDSTYSLSSTLTLSKADYEKHKVYACEVTHQGLSSPVTKSFNRGEC
scFv-Fc: EVQLVESGGGLIQPGGSLRLSCAASGFTFNTYAMHWVRQAPGKGLEWVARIRSKYNNYATYYADSVKDRFTISRDDSKSTLYLQMNNLRAEDTAVYYCVRHGNFGNSYVSWFAYWGQGTLVTVSSGKPGSGKPGSGKPGSGKPGSQAVVTQEPSLTVSPGGTVTLTCRSSTGAVTTSNYANWVQQKPGQAPRGLIGGTNKRAPGTPARFSGSLLGDKAALTISGAQPEDEAEYYCALWYSNLWVFGGGTKVTVL[human IgG1 Fc with C220S L234A L235A P329A T366W (EU numbers) cut from this listing]
notes: anti-TSPAN8/anti-CD3
In general, EC50 refers to the concentration that produces a half-maximal response. A low value points to higher potency in that assay. The molecule B1 returned an EC50 of 0.297 µg/mL.

B2: BTE-0110 (bispecific antibody)
chain 1: B1 heavy
chain 2: B1 light
chain 3: B1 scFv-Fc with H35N, Y61S, I222L, E232D
Take B2: the EC50 was 0.0471 µg/mL.

B3: BTE-0108 (bispecific antibody)
chain 1: B1 heavy
chain 2: B1 light
chain 3: B1 scFv-Fc with H35N, Y55A, I222L, E232D
B3 gave an EC50 of 0.00831 µg/mL.

B4: BTE-0104 (bispecific antibody)
chain 1: B1 heavy
chain 2: B1 light
chain 3: B1 scFv-Fc with H35S, I222L, E232D
Regarding B4, the EC50 was 0.499 µg/mL.

B5: BTE-0093 (bispecific antibody)
chain 1: B1 heavy
chain 2: B1 light
chain 3: B1 scFv-Fc with H35S
On to B5, for which the EC50 was determined as 0.0903 µg/mL.

B6: BTE-0109 (bispecific antibody)
chain 1: B1 heavy
chain 2: B1 light
chain 3: B1 scFv-Fc with H35N, Y61E, I222L, E232D
Molecule B6 showed an EC50 of 0.217 µg/mL.

B7: BTE-0103 (bispecific antibody)
chain 1: B1 heavy
chain 2: B1 light
chain 3: B1 scFv-Fc with N30S, T31D, Y32H, H35N, I222L, E232D
In the case of B7, the concentration for a half-maximal effect (EC50) was 0.18 µg/mL.

B8: BTE-0114 (bispecific antibody)
chain 1: B1 heavy
chain 2: B1 light
chain 3: B1 scFv-Fc with N30S, T31D, Y32H, H35N, I222L, L242H
As to B8, the EC50 worked out at 0.086 µg/mL.

B9: BTE-0135 (bispecific antibody)
heavy: B1 heavy
light: B1 light
scFv-Fc: B1 scFv-Fc with H35N, A113D, I222L
notes: anti-TSPAN8/anti-CD3
B9 returned an EC50 of 0.204 µg/mL.

B10: BTE-0116 (bispecific antibody)
heavy: B1 heavy
light: B1 light
scFv-Fc: B1 scFv-Fc with I222L, L242H
notes: anti-TSPAN8/anti-CD3
On to B10, for which the EC50 worked out at 0.187 µg/mL.

B11: BTE-0105 (bispecific antibody)
heavy: B1 heavy
light: B1 light
scFv-Fc: B1 scFv-Fc with I222L, E232D
notes: anti-TSPAN8/anti-CD3
B11: a half-maximal effect (EC50) was put at 0.201 µg/mL.

B12: BTE-0101 (bispecific antibody)
heavy: B1 heavy
light: B1 light
scFv-Fc: B1 scFv-Fc with H35N, S107D
notes: anti-TSPAN8/anti-CD3
Consider B12, for which a half-maximal response (EC50) required 0.113 µg/mL.

B13: BTE-0107 (bispecific antibody)
heavy: B1 heavy
light: B1 light
scFv-Fc: B1 scFv-Fc with H35G, I222L, E232D
notes: anti-TSPAN8/anti-CD3
Take B13: the EC50 came to 0.594 µg/mL.

B14: BTE-0106 (bispecific antibody)
heavy: B1 heavy
light: B1 light
scFv-Fc: B1 scFv-Fc with H35A, I222L, E232D
notes: anti-TSPAN8/anti-CD3
Turning to B14, the half-maximal effective concentration (EC50) was 0.327 µg/mL.

B15: BTE-0111 (bispecific antibody)
heavy: B1 heavy
light: B1 light
scFv-Fc: B1 scFv-Fc with H35N, S107E, I222L, E232D
notes: anti-TSPAN8/anti-CD3
B15 returned an EC50 of 0.066 µg/mL.

B16: BTE-0097 (bispecific antibody)
heavy: B1 heavy
light: B1 light
scFv-Fc: B1 scFv-Fc with H35N, Y55A
notes: anti-TSPAN8/anti-CD3
Turning to B16, it took 0.0308 µg/mL to reach a half-maximal effect (EC50).

B17: BTE-0113 (bispecific antibody)
heavy: B1 heavy
light: B1 light
scFv-Fc: B1 scFv-Fc with H35N, A113D, I222L, E232D
notes: anti-TSPAN8/anti-CD3
Consider B17, for which a half-maximal response (EC50) required 0.363 µg/mL.

B18: BTE-0124 (bispecific antibody)
heavy: B1 heavy
light: B1 light
scFv-Fc: B1 scFv-Fc with H35N, A113D, I222L, L242H
notes: anti-TSPAN8/anti-CD3
B18 returned a concentration giving a half-maximal response (EC50) of 0.378 µg/mL.

B19: BTE-0112 (bispecific antibody)
heavy: B1 heavy
light: B1 light
scFv-Fc: B1 scFv-Fc with H35N, S107D, I222L, E232D
notes: anti-TSPAN8/anti-CD3
Molecule B19 returned an EC50 of 0.0433 µg/mL.

B20: BTE-0128 (bispecific antibody)
heavy: B1 heavy
light: B1 light
scFv-Fc: B1 scFv-Fc with H35A, I222L
In turn, B20 showed an EC50 of 0.174 µg/mL.

B21: BTE-0102 (bispecific antibody)
heavy: B1 heavy
light: B1 light
scFv-Fc: B1 scFv-Fc with H35N, A113D
notes: anti-TSPAN8/anti-CD3
B21 had an EC50 of 0.77 µg/mL.

B22: BTE-0099 (bispecific antibody)
heavy: B1 heavy
light: B1 light
scFv-Fc: B1 scFv-Fc with H35N, Y61S
notes: anti-TSPAN8/anti-CD3
Molecule B22 yielded an EC50 of 0.0682 µg/mL.

B23: BTE-0100 (bispecific antibody)
heavy: B1 heavy
light: B1 light
scFv-Fc: B1 scFv-Fc with H35N, S107E
notes: anti-TSPAN8/anti-CD3
For B23, it took 0.247 µg/mL to reach a half-maximal effect (EC50).

B24: BTE-0118 (bispecific antibody)
heavy: B1 heavy
light: B1 light
scFv-Fc: B1 scFv-Fc with H35G, I222L, L242H
notes: anti-TSPAN8/anti-CD3
In the case of B24, the EC50 was found to be 0.709 µg/mL.

B25: BTE-0127 (bispecific antibody)
heavy: B1 heavy
light: B1 light
scFv-Fc: B1 scFv-Fc with I222L
With B25, it took 0.122 µg/mL to reach a half-maximal effect (EC50).

B26: BTE-0095 (bispecific antibody)
heavy: B1 heavy
light: B1 light
scFv-Fc: B1 scFv-Fc with H35A
notes: anti-TSPAN8/anti-CD3
As to B26, it took 0.41 µg/mL to reach a half-maximal effect (EC50).

B27: BTE-0096 (bispecific antibody)
heavy: B1 heavy
light: B1 light
scFv-Fc: B1 scFv-Fc with H35G
notes: anti-TSPAN8/anti-CD3
In turn, B27 registered an EC50 of 0.802 µg/mL.

B28: BTE-0098 (bispecific antibody)
heavy: B1 heavy
light: B1 light
scFv-Fc: B1 scFv-Fc with H35N, Y61E
notes: anti-TSPAN8/anti-CD3
The molecule B28 displayed an EC50 of 0.438 µg/mL.

B29: BTE-0134 (bispecific antibody)
heavy: B1 heavy
light: B1 light
scFv-Fc: B1 scFv-Fc with H35N, S107D, I222L
notes: anti-TSPAN8/anti-CD3
B29: the EC50 worked out at 0.046 µg/mL.

B30: BTE-0129 (bispecific antibody)
heavy: B1 heavy
light: B1 light
scFv-Fc: B1 scFv-Fc with H35G, I222L
In the case of B30, the EC50 was found to be 0.469 µg/mL.

These data come from patent US20250304706A1 (Astellas, published 2025).
